Laboratory results taken from PubChem BioAssay (NCI).
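Test compounds were applied to cells in 96-well plates for 48 hours at 5 doses. The concentration for 50% growth inhibition is given as GI50. TGI is the concentration that stops growth completely.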

The molecules below were run on NCI-H322M lung (assay: DTP human tumour cell line panel, 48 h).

Compared with COc1cc2oc(-c3ccc(O)cc3)c(OC)c(=O)c2c(O)c1OC, COc1ccc(-c2nc3ccccn3c2/C=C/C(=O)c2cc(OC)c(OC)c(OC)c2)cc1OC is 32-fold lower in GI50: 66.3 µM for the first, 2.08 µM for the second.

Going from CC1(C)C(=O)/C(=C\c2cccnc2)C[C@]2(C)[C@H]3CC[C@@H]4[C@H]5[C@H](C(=O)/C=C/c6cccnc6)CC[C@]5(C(=O)O)CC[C@@]4(C)[C@]3(C)CC[C@@H]12 to C=C1C(=O)O[C@H]2[C@H]1CC/C(COC(=O)NCCCCNC(=O)OC/C1=C/CC[C@@]3(C)O[C@H]3[C@H]3OC(=O)C(=C)[C@@H]3CC1)=C\CC[C@@]1(C)O[C@@H]21, the GI50 rises from 3.52 µM to 12.6 µM (3.6-fold).

First: Cc1ccc(N=C/C=C(\Nc2ccc(C)cc2)c2ccc(Cl)cc2)cc1
Second: c1ccc(Sc2ccc(Cc3nc4cc5ccccc5cc4[nH]3)cc2)cc1
The GI50 of the first is 5-fold higher: 10.5 µM for the first, 2.1 µM for the second.

Going from Cc1cc(C)c(NC(=O)c2sc3nc4c(cc3c2N)C(=O)CCC4)c(C)c1 to CCc1nc2cc(F)c(/C=C/C(=O)NO)cc2c(=O)n1CCc1ccccc1, the GI50 falls from 8.98 µM to 0.41 µM (22-fold).

Going from COc1cc2oc(-c3ccc(O)cc3)c(OC)c(=O)c2c(O)c1OC to COc1ccc(-c2nc3ccccn3c2/C=C/C(=O)c2cc(OC)c(OC)c(OC)c2)cc1OC, the TGI falls from over 100 µM to 18.6 µM.

CCCC1=C(CC)C(C(=O)Nc2c(C)cccc2C)=NC(S)N1 (stereo not drawn) and Cc1cc(C)c(NC(=O)c2sc3nc4c(cc3c2N)C(=O)CCC4)c(C)c1 cannot be ordered by TGI: over 100 µM for the first, over 100 µM for the second.

Going from O=c1cc(N2CCCC2)[nH]c(=O)n1-c1cccc(Cl)c1 to CC1S/C(=N\N=C2/C(=O)Nc3ccc(Br)cc32)N(C2CCCCC2)C1=O (stereo not drawn), the TGI falls from over 100 µM to 7.08 µM.

Compared with COC(=O)CC1N=C(NC#N)N(CCc2c[nH]c3ccccc23)C1=O (stereo not drawn), CCc1nc2cc(F)c(/C=C/C(=O)NO)cc2c(=O)n1CCc1ccccc1 is lower in TGI: over 100 µM for the first, 19.5 µM for the second.

O=C(O)CNS(=O)(=O)c1ccc(NC(=O)c2ccc([N+](=O)[O-])cc2)cc1 and COc1ccc(S(=O)(=O)c2ccccc2[N+](=O)[O-])cc1 cannot be ordered by TGI: over 100 µM for the first, over 100 µM for the second.

CC(=O)O[C@H]1C(=O)[C@@]2(C)[C@H]([C@H](OC(=O)c3ccoc3)[C@]3(O)C[C@H](OC(=O)[C@H](O)[C@@H](NC(=O)c4ccccc4)c4ccccc4)C(C)=C1C3(C)C)[C@]1(OC(C)=O)CO[C@@H]1C[C@@H]2O and Nc1nc(-c2ccccc2)cc(-c2ccc(OCc3ccccc3)cc2O)n1 cannot be ordered by TGI: over 12.5 µM for the first, over 100 µM for the second.

CC(C)=C[C@H]1CCC2(OCCO2)[C@]1(C)COCc1ccccc1 and CN(C)CCCN=c1c2ccccc2n(O)c2ccccc12 cannot be ordered by TGI: over 100 µM for the first, over 100 µM for the second.

Compared with CCOc1ncn(-c2ccc(NC(=S)NC3OC(CO)C(O)C(O)C3O)cc2)n1 (stereo not drawn), CCN(CC)CCSc1c2cc(OC)ccc2nc2ccc(OC)cc12 is lower in TGI: over 100 µM for the first, 28 µM for the second.

Going from COc1ccc(C[N+](C)(C)N)cc1OC to COc1ccc(-c2cc(-c3cc(C)cc(Br)c3O)no2)cc1, the TGI falls from over 100 µM to 26.1 µM.

COC(=O)C1=CS/C(=C2\S[C@@H]3[C@H](S2)[C@H]2C=C[C@@H]3C2)S1 and COC(=O)C12CC3CC(CC(C(=O)O)(C3)C1)C2 cannot be ordered by TGI: over 100 µM for the first, over 100 µM for the second.

Going from CC1(C)C(=O)/C(=C\c2cccnc2)C[C@]2(C)[C@H]3CC[C@@H]4[C@H]5[C@H](C(=O)/C=C/c6cccnc6)CC[C@]5(C(=O)O)CC[C@@]4(C)[C@]3(C)CC[C@@H]12 to C=C1C(=O)O[C@H]2[C@H]1CC/C(COC(=O)NCCCCNC(=O)OC/C1=C/CC[C@@]3(C)O[C@H]3[C@H]3OC(=O)C(=C)[C@@H]3CC1)=C\CC[C@@]1(C)O[C@@H]21, the TGI rises from 13.5 µM to 25.8 µM (1.9-fold).

Compared with Cc1ccc(N=C/C=C(\Nc2ccc(C)cc2)c2ccc(Cl)cc2)cc1, c1ccc(Sc2ccc(Cc3nc4cc5ccccc5cc4[nH]3)cc2)cc1 is 3.3-fold lower in TGI: 32.2 µM for the first, 9.85 µM for the second.

Going from O=C(CCc1nc(=S)[nH][nH]1)Nc1ccccc1Cl to Cc1sc2nc(-c3cccc([N+](=O)[O-])c3)c(/C=N/N=C(N)N)n2c1C, the TGI falls from over 100 µM to 3 µM.

O=C(N/N=C\C=C\c1ccc([N+](=O)[O-])o1)C(=O)N/N=C\C=C\c1ccc([N+](=O)[O-])o1 and CC(C)OC(=O)/C=C/C(=O)O/C=C/[N+](=O)[O-] cannot be ordered by TGI: over 100 µM for the first, over 100 µM for the second.

O=C1NC(=S)NC(=O)C1C(c1ccc(O)cc1)C1C(=O)NC(=S)NC1=O and N#CCCC(CCC#N)(CCC#N)NO cannot be ordered by TGI: over 100 µM for the first, over 100 µM for the second.
